Sequences with one replicate were seen in a single cluster, so their values are uncertain.
Tested on: ATP
Assay: switch fluorescence ratio, 500 uM ATP over buffer (Cy3 cluster intensity, sum of 5 cycles each) (fold (ratio)); higher = stronger signal-on switching upon ATP binding; sequences stand for … in TCGTCGGCAGCGTCAGATGTGTATAAGAGACAGTTTTTTTTTTTTTTTTTTTTTTTTT…TC
Conditions: aptamer strand: ATP DNA aptamer (quencher-CACCTGGGGGAGTATTGCGGAGGAAGG + anchor), 100 nM annealed; ATP concentration: 500 uM; one replicate
Procedure, shortened: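 Exposure to 500 uM ATP lasted 15 min at 22 °C before imaging, and a selection-buffer image was taken beforehand, for Cy3-labelled switching-strand clusters on a modified Illumina MiSeq flow-cell annealed to 100 nM quencher-labelled ATP aptamer. Five buffer/ATP cycles were run with NaOH stripping and re-annealing between them. The fluorescence ratio per cluster is summed target-cycle over summed buffer-cycle Cy3 intensity, averaged per switch-domain sequence. Clusters outside 100-1000 RFU were excluded.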

Sequence | switch fluorescence ratio
ATTTAAAGAA | 0.988
ATATAAAAGT | 1.02
AATAGGACAT | 1.04
GACCGCTGTT | 1.01
TTCTAGTCCT | 1.04
GTGCGGGGGG | 1.03
CGCACAGTAT | 1.11
AGAAGCGATG | 0.985
GTAAAGTGGT | 0.983
GATTCTGCTG | 1.01
TTATGGCTGG | 1.01
ACAGTGATTA | 1.02
TTTGCTAGGA | 1.02
TACGAGATTT | 1.02
CCGAGGATAG | 1.49
AGTTATGGGC | 0.992
GGTGTCTTAT | 0.996
GATAGATCTC | 0.984
AAACATCCGG | 0.999
AAAAGGCAAT | 1.16
ACGGAGTGAA | 1.04
AAGCATACC | 1.53
AGATCCCGTA | 0.948

Sequence | switch fluorescence ratio
GCCCGATCTA | 1.16
ACTGGGCAGG | 1.02
CTTTATTTGA | 0.964
CGATGAAAAT | 1
GCGCATGTG | 0.982
GCGGGGTAGC | 1.02
CACGACTCTT | 0.99
CGGTACCTAT | 0.99
ATCCGATATC | 1.87
GAGTCGTATT | 0.983
ATCCGACCTG | 0.979
AACAGTCGTC | 1
TCTCCCAATT | 5.44
TGGCGGTCCA | 0.99
CCTGGCGAG | 1.03
AGTGCAGGGC | 1.1
TATTGGTACA | 0.984
TACGCTTC | 1.02
CGGTGGGTGA | 1.01
CTAGTTGTGT | 0.936
GTACTCACAG | 1.12
TAAGAAACTC | 1.02
TAACGGCTTG | 1.01

Sequence | switch fluorescence ratio
CATTCTATCT | 1.03
AGGAGCGTA | 1.02
GATTGGCGGA | 0.918
CCACTCGTTT | 1.03
CTATTATGAG | 1.06
CAATGTTACT | 1.02
ATGAACGCG | 0.986
CGCAGTTGCT | 1.23
TTAGCATGTG | 1.14
GGACCGTAGA | 1.04
AGGGACGCGG | 0.992
CCATAGGCAA | 4.65
GGGCATGGG | 0.971
AAGAACCGAG | 1.31
AATTAGATT | 1.01
CTGTTTTTCT | 0.95
TTTAGGGTCT | 0.986
TGCTTAAGTG | 1.01
TGACTTGGCA | 1.02
CCAACGTCAC | 2.75
AGTCTGCCTT | 1.06
CAATCCCTTT | 0.985
AACTGAGGG | 1

Sequence | switch fluorescence ratio
TAGTGGACAC | 1.05
GTCTTTCGCA | 1.06
AGGAAAACTC | 1.02
CTTCCTATGT | 1.23
GGGAGGACGT | 1.04
ACAGGTCCAT | 0.957
TACTGCGCGC | 1.09
CAAGAGGATC | 1
GAAGTGTAAT | 1.03
GCGTAAGTAC | 1.6
ACCACAACCT | 1.65
TATGCTTCTA | 0.986
ATGCAGTGTC | 0.943
CTGCCCTGT | 1
TTTGCTTGAT | 1.01
GCTAGAACCC | 1.06
CCGTGGAGG | 1.02
ATTCGGCCAG | 1.01
GGGGCGATCG | 1.01
TGAAGCACAT | 1.45
GACAGTAGCT | 1.05
AGCCGTCTAT | 1.03
CAGTTTCACT | 1.01

Sequence | switch fluorescence ratio
GTCAATCGTG | 0.991
CATACGTGTC | 1.25
TGATGTGAAG | 0.996
TGGTTTTCGA | 0.992
TCTACATAAG | 1
CTAGACAAGC | 0.992
CGGTGTGCCA | 0.988
TCGCTTGTCC | 1.05
ATCAAACGTA | 1.09
GCGATAAG | 1.08
TAGAGTCACC | 1.02
GCTCCTTTCC | 1.7
AGGTTGGACA | 0.991
AGAAGCATCA | 0.978
AAGGTGCGTC | 1.06
CCAGACAA | 1.16
GCCTAAGACT | 1.03
TGTGCGAGAG | 1.01
GCCGTAGTTA | 0.991
CCATTTGGTC | 0.985
TGGTCAATGC | 1.83
CGGATTCGTC | 0.971
TCTTTAACTG | 1.01

Sequence | switch fluorescence ratio
TTTGAAAGTA | 0.999
TAAGACACGG | 1.03
GCATATCTGA | 0.964
GGCTCTGCTT | 0.989
GATGATTTG | 0.916
CATGGGCACG | 0.986
ACTTGGACCG | 1.06
TTACTCGCA | 1.25
CATGCGCTCG | 1.04
TTTGTGGGAA | 0.948
TCTTTGTGTG | 1.01
ACAGGGAGGT | 0.984
TGTCGGTCCT | 1.01
GGAGCATAAA | 2.1
AGTCCGGGG | 1.02
TTCGCGCCCC | 5.4
GATTCGAGGA | 1.02
CGGATCAGTC | 1.02
GACTTAGCGC | 0.928
ACGCATGGAA | 2.95
TTAGCCGTTT | 1.03
ACTCTTTTTT | 1.03
TAGCTGATTC | 0.985

Sequence | switch fluorescence ratio
TGAAAGGAAA | 1.07
ACTTACCGTC | 1.12
GTCCCTATCG | 0.975
TTATTTTCTC | 0.998
TCACTGGGGC | 0.97
GAACGGGCAT | 1
GTTTCGGCGA | 0.99
TAAGCTGAGG | 1.05
GAACTAGTGC | 0.945
AGGAAAGAGC | 1.02
AGGAGACAG | 1.01
GTTGGGTGC | 0.967
GCAACCCTG | 1.02
AGAGGGTCAC | 0.993
CGGTGAGATG | 1.05
TTTATGGGGC | 0.97
ATCTCATCCG | 1.11
TCAGCAGGTG | 6.02
GTAGCTGACT | 0.985
TATTCTGTCT | 1.02

Source: the supplement of paper PMC10126150
